In PubChem BioAssay AID1030 (National Center for Advancing Translational Sciences (NCATS), 2008):
Screen size: about 220,000 compounds; about 16,000 (7.3%) were called active. The shares of active, inactive and inconclusive entries below differ from those in the screen. The call rests on the fitted dose curve; in most records, active means well fitted inhibition curve with a large enough effect (not every such curve was filed as active); inconclusive means small, poorly fitted or top-dose-only effect, or another doubt; inactive means no such curve, though single readings can be large or run the other way. No potency is given beside an inconclusive call; the fits are too rough.

These molecules were tested against Aldehyde dehydrogenase 1A1 (Homo sapiens) (UniProt P00352) (assay: qHTS Assay for Inhibitors of Aldehyde Dehydrogenase 1 (ALDH1A1)). Conditions: Purified ALDH1A1, NADH fluorescence, propionaldehyde substrate; series mostly up to 75.3 µM; activity, negative = inhibition: at the top concentration.
Potency means the concentration at half of the fitted maximal effect; tags describe the fitted curve by direction and shape.
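Wherever activity, negative = inhibition is given: plate controls were no enzyme wells and a reference inhibitor.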

Sequence of UniProt P00352 (P00352 whole entry, looked up): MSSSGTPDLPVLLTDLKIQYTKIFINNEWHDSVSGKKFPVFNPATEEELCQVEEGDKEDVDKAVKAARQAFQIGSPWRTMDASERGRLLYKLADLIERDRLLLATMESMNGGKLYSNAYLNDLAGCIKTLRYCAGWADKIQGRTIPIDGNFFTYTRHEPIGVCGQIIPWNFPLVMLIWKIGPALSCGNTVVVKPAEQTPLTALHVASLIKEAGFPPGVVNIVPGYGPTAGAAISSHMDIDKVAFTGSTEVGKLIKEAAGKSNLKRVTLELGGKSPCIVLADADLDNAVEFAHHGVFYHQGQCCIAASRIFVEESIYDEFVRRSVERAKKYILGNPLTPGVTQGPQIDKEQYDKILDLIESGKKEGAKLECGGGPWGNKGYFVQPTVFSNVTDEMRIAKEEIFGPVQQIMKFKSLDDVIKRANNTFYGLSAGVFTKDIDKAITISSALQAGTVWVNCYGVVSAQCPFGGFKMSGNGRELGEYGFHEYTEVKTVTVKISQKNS

Row | SMILES | Potency | activity, negative = inhibition
1 | CCOc1cc(/C=N\NC(=O)OC(C)(C)C)ccc1OC(=O)c1ccco1 | inconclusive [inhibitor, single point] | –
2 | O=C(CSc1nnc(CN2CCCCC2)n1-c1ccccc1)c1ccc2c(c1)OCO2 | inconclusive [inhibitor, single point] | –
3 | O=C(N/N=C/C(Cl)=C/c1ccc([N+](=O)[O-])cc1)C(=O)Nc1cccc(C(=O)O)c1 | – | inactive: 1.17%
4 | Cc1ccccc1C(=O)NC(C)c1ccc2c(c1)CCCC2 (stereo not given) | – | inactive: 11%
5 | COc1ccc(CNc2oc(COc3ccc(Cl)cc3)nc2C#N)cc1 | – | inactive: -5.25%
6 | C/C(=N\NC(=O)COc1ccc([N+](=O)[O-])cc1)C(C)(C)C | active: 20 µM | –
7 | Cc1ccc(Cl)cc1-c1ccc(/C=N/n2cnnc2)o1 | – | inactive: 2.14%
8 | Cc1cc(C)c(C(=O)CSc2nnc(-c3ccccc3Br)o2)cc1C | inconclusive [inhibitor, single point] | –
9 | O=C(O)/C=C\C=C/c1ccc2c(c1)OCO2 | – | inactive: -9.24% [at 13.5 µM]
10 | CC(=O)c1ccc(NC(=O)NCc2ccc(F)cc2)cc1 | inconclusive [inhibitor, single point] | –
11 | CC1(C)CC2CC(C)(CN2C(=O)COC(=O)c2cc(Cl)cc(Cl)c2N)C1 (stereo not given) | inconclusive [inhibitor, single point] | –
12 | COc1cc2c(cc1OC)C(C)N(C(=O)c1cc3c(=O)oc4ccc(C)cc4c3s1)CC2 (stereo not given) | inconclusive [inhibitor, partial curve] | –
13 | CCc1nnc(NC(=O)CSc2nnc(COc3ccccc3)n2-c2ccc(C)cc2)s1 | – | inactive: 13.9%
14 | CN(C)S(=O)(=O)N1CCN(c2ccc([N+](=O)[O-])cc2)CC1 | inconclusive [inhibitor, single point] | –
15 | COc1cccc(/C=N/NC(=O)CNC(=O)c2ccc(S(=O)(=O)N3CCCC3)cc2)c1OC | inconclusive [inhibitor, partial curve] | –
16 | CCN1CCN(CCCNC(=O)c2cc3c(=O)[nH]c4ccccc4c3s2)CC1 | inconclusive [inhibitor, single point] | –
17 | Cn1cnnc1Sc1ccc(C(=O)NCCC(c2ccccc2)c2ccccc2)cc1[N+](=O)[O-] | active: 20 µM | –
18 | COc1ccc(CCNCC(=O)N2C(C)CCCC2C)cc1OC (stereo not given) | inconclusive [inhibitor, single point] | –
19 | Cc1ccnc(SCc2cc(=O)c(OC(=O)c3ccco3)co2)n1 | – | inactive: 6.37%
20 | O=C(N1CCCCC1)N1CCCN(C(=O)N2CCCCC2)CC1 | inconclusive [inhibitor, partial curve] | –
21 | CC1CN(Cc2cn(C)nc2-c2ccc(Oc3ccccc3)cc2)CCN1C (stereo not given) | inconclusive [inhibitor, single point] | –
22 | CCOC(=O)N1CCC(NC(=O)c2cccnc2SC)CC1 | inconclusive [inhibitor, single point] | –
23 | CCc1ccc(N2C(=O)CC(N3CCN(Cc4ccc5c(c4)OCO5)CC3)C2=O)cc1 (stereo not given) | inconclusive [inhibitor, single point] | –
24 | CN(C(=O)c1ccc(NC(=O)C2CC=CCC2C(=O)O)cc1)c1ccccc1 (stereo not given) | inconclusive [inhibitor, partial curve] | –
25 | Cc1cccc(/C=C/C(=O)c2cc(Br)ccc(=O)c2O)c1 | active: 20 µM | –

Row | SMILES | Potency | activity, negative = inhibition
26 | CC(=O)NC1C(OCc2ccccc2)OC(COC(C)=O)C(OC(C)=O)C1OC(C)=O (stereo not given) | – | inactive: 13.5%
27 | Cc1ccc(S(=O)(=O)c2cc(N3CCOCC3)nc(-c3ccccc3)n2)cc1 | inconclusive [inhibitor, single point] | –
28 | NC(=O)c1c(NC(=O)CCCC(=O)O)sc2c1CCCCCC2 | – | inactive: 5.93%
29 | CCCCN1CN(S(=O)(=O)c2cccs2)c2nc3ccccc3nc21 | inconclusive [inhibitor, partial curve] | –
30 | N#Cc1nc(-c2ccc(OCc3ccccc3Cl)cc2)oc1NCCCn1ccnc1 | inconclusive [inhibitor, full curve] | –
31 | Cc1c(CCOC(=O)C23CC4CC(CC(C)(C4)C2)C3)sc[n+]1CC(=O)c1ccccc1 | inconclusive [inhibitor, single point] | –
32 | O=C(CCCCCN1C(=O)c2ccccc2C1=O)Nc1ccc2c(c1)OCCO2 | active: 28.2 µM | –
33 | COc1ccc(C(C[N+](=O)[O-])C2(c3ccc(OC)c(OC)c3)C(=O)c3ccccc3C2=O)cc1 (stereo not given) | inconclusive [inhibitor, single point] | –
34 | O=C(COC(=O)COc1ccccc1)NCc1ccccc1 | – | inactive: 2.8%
35 | CCCOC(=O)Cc1n[nH]c(=O)[nH]c1=O | – | inactive: 4.66%
36 | O=C(NCCCN1CCOCC1)c1ccc(NC(=O)C2COc3ccccc3O2)cc1 (stereo not given) | – | inactive: 5.47%
37 | CS(=O)(=O)N(CC(=O)NC1CC1)C1CCCCC1 | – | inactive: 4.46%
38 | COCC(C)NC(=O)c1noc2c1CCc1cc(OC)ccc1-2 (stereo not given) | – | inactive: -10.3%
39 | Nn1cc(-c2ccccc2)nc1SCC(=O)N1CCN(S(=O)(=O)c2ccc3ccccc3c2)CC1 | inconclusive [inhibitor, single point] | –
40 | Cc1ccc(NC(=O)CSc2nnc(Cc3cccn3C)n2-c2ccc(F)cc2)cc1 | inconclusive [inhibitor, single point] | –
41 | O=[N+]([O-])/C(C(Cl)=C(Cl)Cl)=C(/NC1CC1)Sc1ccccc1 | active: 17.8 µM | –
42 | O=C1CSCC(=O)N1c1ccccc1 | inconclusive [inhibitor, single point] | –
43 | CC(C)(C)NC(=O)C(c1ccncc1)N(C(=O)Cn1nnc(-c2ccc(F)cc2)n1)c1ccccc1F (stereo not given) | inconclusive [inhibitor, partial curve] | –
44 | O=C(CSc1nc2ccccc2o1)N1CCN(c2ccc(Cl)cc2)CC1 | inconclusive [inhibitor, single point] | –
45 | CCN1CCN(CC(=O)c2cc(OC)c(OC)c(OC)c2)CC1 | active: 28.2 µM | –
46 | CC1=CC(C)(C)NC(=S)N1c1ccc(C)cc1 | – | inactive: 3.58%
47 | O=C(NN=C1CCCC1)NC1CCCCC1 | – | inactive: -3.18%
48 | COc1ccc(NC(=O)COC(=O)C(CC(C)C)N2C(=O)C3CC=CCC3C2=O)cc1Cl (stereo not given) | inconclusive [inhibitor, single point] | –
49 | CCOc1cc(/C=C2/C(=O)ON=C2C)ccc1OCc1ccccc1F | active: 5.01 µM | –
50 | CCOc1cccc2sc(Nc3nc4ccc(NC(C)=O)cc4s3)nc12 | inconclusive [inhibitor, partial curve] | –

Row | SMILES | Potency | activity, negative = inhibition
51 | FC(F)(F)c1ccccc1NC(=S)N/N=C1\CC2CC=CC12 (stereo not given) | active: 7.94 µM | –
52 | O=C(N=C1SCC(=O)N1c1ccccc1)c1ccco1 | – | inactive: -6.29%
53 | COc1ccc(OC)c(NC(=S)N(CCc2c(C)[nH]c3ccc(C)cc23)Cc2cccs2)c1 | inconclusive [inhibitor, single point] | –
54 | O=C(Nc1nccs1)c1nc(-c2ccccc2)n(-c2ccccc2)n1 | – | inactive: 2.63%
55 | Cc1ccc(OCCCCN2CCCC(C)C2)c([N+](=O)[O-])c1 (stereo not given) | active: 31.6 µM | –
56 | CCN(CC)c1ccc(NC(=O)COc2ccccc2C#N)cc1S(=O)(=O)Nc1ccccc1OC | – | inactive: -8.86%
57 | Cc1cc(NS(=O)(=O)Cc2ccccc2)cc(C)c1OCC(=O)N1CCOCC1 | – | inactive: 7.02%
58 | O=C(NCc1ccc(F)cc1)C(c1cccs1)N(C(=O)c1csnn1)C1CC1 (stereo not given) | inconclusive [inhibitor, single point] | –
59 | CCOc1cc(C=C(C#N)C#N)ccc1Oc1ccc([N+](=O)[O-])cn1 | active: 3.16 µM | –
60 | COc1ccc(-n2nc([N+](=O)[O-])c(=NCCC3=CCCCC3)n2O)cc1 | inconclusive [inhibitor, partial curve] | –
61 | CS(=O)(=O)Nc1nnc(SCC(=O)N(c2ccccc2)c2ccccc2)s1 | active: 31.6 µM | –
62 | CN(C)NC(=S)NC(=O)C12CC3CC(CC(C3)C1)C2 | active: 28.2 µM | –
63 | NC[C@@H]1O[C@H](C23CC4CC(CC(C4)C2)C3)Cc2c1ccc(O)c2O | inconclusive [inhibitor, single point] | –
64 | Cc1ccc(SCc2[nH]nc3c2C(c2ccc(C)o2)C(C#N)=C(N)O3)cc1 (stereo not given) | inconclusive [inhibitor, single point] | –
65 | Cc1cccc2[nH]c3c(=O)n(CCN4CCNCC4)cnc3c12 | inconclusive [inhibitor, partial curve] | –
66 | CC(C)Cn1c(-c2ccco2)n[nH]c1=S | inconclusive [inhibitor, single point] | –
67 | CCOC(=O)C1C(c2ccccc2)NC(=S)NC1(C)O (stereo not given) | inconclusive [inhibitor, single point] | –
68 | O=C(COc1cccnc1[N+](=O)[O-])NCc1ccco1 | – | inactive: -0.592%
69 | Cc1cc(OCC(=O)N2CCc3ccccc3C2)c2c(-c3ccccc3)cc(=O)oc2c1 | active: 14.1 µM | –
70 | CCNc1ccc(S(=O)(=O)N(C)C)cc1NCC(=O)Nc1ccccc1Cl | active: 8.91 µM | –
71 | O=Cc1ccc2noc(-c3ccc(Cl)cc3)c2c1 | active: 22.4 µM | –
72 | Cc1nc(-c2ccccc2)sc1-c1nc(-c2cccnc2)ncc1S(=O)(=O)c1ccccc1 | inconclusive [inhibitor, single point] | –
73 | CCSc1ccccc1C(=O)NCc1ccc2c(c1)OCO2 | inconclusive [inhibitor, single point] | –
74 | Cc1ccc2c(c1[N+](=O)[O-])C(=O)c1ccccc1C2=O | inconclusive [inhibitor, single point] | –
75 | CC(=O)Oc1ccc2c(=O)c(-c3ccccc3)c(C)oc2c1 | – | inactive: 34%
